Experimental data reported in US20190135895A1 (published 2019).

Tests used:
[1] = target: T1, truncated monomeric His-tagged human FcRn (human, UniProt P55899 partial chain; P61769 partial chain); assay: SPR, hFcRn over immobilized HSA variants, pH 6.0
T1 construct: extracellular domain; Made in a Baculovirus system; also called hFcRn; soluble hFcRn; not shown: His tag

[2] = target: T1, truncated monomeric His-tagged human …; assay: SPR (BIAcore 3000), hFcRn injected over immobilized (~500 RU) GST-fused HSA variant, pH 6.0, 1:1 model

T1 sequence (P55899 24-297 limits assumed, chain 1 of 2): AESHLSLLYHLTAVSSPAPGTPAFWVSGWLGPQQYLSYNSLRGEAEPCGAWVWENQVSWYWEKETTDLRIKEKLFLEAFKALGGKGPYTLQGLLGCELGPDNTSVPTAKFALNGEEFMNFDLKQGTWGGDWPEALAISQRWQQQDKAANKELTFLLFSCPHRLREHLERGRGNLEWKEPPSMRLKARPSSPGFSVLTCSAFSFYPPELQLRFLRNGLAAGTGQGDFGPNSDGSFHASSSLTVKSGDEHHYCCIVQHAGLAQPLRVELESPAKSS
T1 sequence (P61769 21-119 limits assumed, chain 2 of 2, further chain): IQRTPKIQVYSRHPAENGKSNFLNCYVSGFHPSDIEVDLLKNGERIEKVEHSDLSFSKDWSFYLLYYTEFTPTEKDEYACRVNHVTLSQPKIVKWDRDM

B1: HSA E505Q/T527M/V547A/K573P-GST (other)
chain: DAHKSEVAHRFKDLGEENFKALVLIAFAQYLQQCPFEDHVKLVNEVTEFAKTCVADESAENCDKSLHTLFGDKLCTVATLRETYGEMADCCAKQEPERNECFLQHKDDNPNLPRLVRPEVDVMCTAFHDNEETFLKKYLYEIARRHPYFYAPELLFFAKRYKAAFTECCQAADKAACLLPKLDELR[about 200 residues not written out]NLIKQNCELFEQLGEYKFQNALLVRYTKKVPQVSTPTLVEVSRNLGKVGSKCCKHPEAKRMPCAEDYLSVVLNQLCVLHEKTPVSDRVTKCCTESLVNRRPCFSALEVDETYVPKEFNAQTFTFHADICTLSEKERQIKKQMALVELVKHKPKATKEQLKAAMDDFAAFVEKCCKADDKETCFAEEGPKLVAASQAALGL
For B1, the “fold improved KD relative to WT HSA” value [1] was > 1400 fold, the Kd [2] was 0.1 nM and the koff [2] was 4e-05 s⁻¹. For the same binder, the kon [2] was 250000 M⁻¹ s⁻¹.
